In PubChem BioAssay AID651804 (National Center for Advancing Translational Sciences (NCATS), 2012):
Screen size: about 1,200 compounds; about 20 (2%) were called active. Inconclusive results, whose numbers are uncertain, are shown with a selection of clear calls. The call rests on the fitted dose curve; in most records, active means well fitted inhibition curve with a large enough effect; inconclusive means small, poorly fitted or top-dose-only effect; inactive means no such curve, though single readings can be large or run the other way. Potencies of inconclusive entries are left out as doubtful fits.

Target: Transcriptional regulator ERG (Homo sapiens) (UniProt P11308)
Sequence of UniProt P11308 (P11308 whole entry, looked up): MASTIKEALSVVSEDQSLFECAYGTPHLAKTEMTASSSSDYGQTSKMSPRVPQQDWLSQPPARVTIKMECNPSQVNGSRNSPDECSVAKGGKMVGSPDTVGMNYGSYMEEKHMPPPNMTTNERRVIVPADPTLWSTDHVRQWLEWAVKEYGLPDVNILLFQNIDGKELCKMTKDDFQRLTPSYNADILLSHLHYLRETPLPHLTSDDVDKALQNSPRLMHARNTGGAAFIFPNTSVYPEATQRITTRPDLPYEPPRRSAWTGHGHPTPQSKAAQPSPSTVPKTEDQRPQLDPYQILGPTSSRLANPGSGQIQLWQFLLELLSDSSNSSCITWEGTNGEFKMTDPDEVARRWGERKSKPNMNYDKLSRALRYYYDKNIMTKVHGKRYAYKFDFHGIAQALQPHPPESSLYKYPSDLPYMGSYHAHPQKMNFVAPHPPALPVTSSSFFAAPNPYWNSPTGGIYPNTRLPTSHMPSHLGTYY
Test: qHTS for Small Molecule Inhibitors of the ERG Ets/DNA interaction: HTRF assay against cherry picks
Conditions: His-ERG Ets domain with biotin-DNA; activity change, negative = inhibition: at 154 µM (top of the series)
Outline: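 HTRF of His-tagged ERG Ets domain (200 nM solution) with biotin-DNA (200 nM solution) in 300mM KCl, 50mM Tris-HCl pH 7.5, 1mM EDTA, 1mM DTT; 10 min RT. Anti-His cryptate donor plus streptavidin acceptor added, 10 min, FRET read at 615/665 nm.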
Potency means the concentration at half of the fitted maximal effect; tags describe the fitted curve by direction and shape.

SMILES | Potency | activity change, negative = inhibition
COc1ccc(-c2ccc(SCC(=O)NCC3CCCO3)nn2)cc1OC (stereo unspecified) | inconclusive [inhibitor, single point] | –
COc1ccc(CNC(=O)c2sc(=S)n(-c3ccccc3)c2N)cc1 | inconclusive [inhibitor, partial curve] | –
CCOc1cc(CNc2cccc3[nH]c(C)nc23)ccc1OC | – | inactive: -20.8%
N#Cc1c(SCc2c(Cl)cccc2Cl)nc(N)[nH]c1=S | – | inactive: -36.5%
O=S(=O)(Nc1cccc(S(=O)(=O)N2CCCCC2)c1)c1ccc(Cl)s1 | inconclusive [inhibitor, partial curve, poor fit] | –
COC(=O)C(=O)/C=C(\O)c1ccc(C)cc1 | inconclusive [inhibitor, partial curve, poor fit] | –
COCCN(CCOC)Cc1c(O)ccc2c1O/C(=C\c1ccco1)C2=O | inconclusive [inhibitor, partial curve, poor fit] | –
O=C(CN1CCOCC1)NNC(=S)Nc1ccccc1 | – | inconclusive: -30.2% [inhibitor]
CCN(CC)CCN1C(=O)C(O)=C(C(C)=O)C1c1ccccc1[N+](=O)[O-] (stereo unspecified) | inconclusive [inhibitor, partial curve, poor fit] | –
CCc1ccc(-c2cc(C(F)(F)F)n3nc(C(=O)Nc4cnn(Cc5ccc(C)cc5)c4)cc3n2)s1 | inconclusive [inhibitor, partial curve] | –
O=C(NC(=S)NNC(=O)c1ccccc1O)c1cccc([N+](=O)[O-])c1 | inconclusive [inhibitor, partial curve, poor fit] | –
COc1cc(OC)c(OC)cc1/C=N/NC(=O)c1cccc(S(=O)(=O)N2CCOCC2)c1 | inconclusive [inhibitor, full curve, poor fit] | –
CCCN(C(=O)c1nn(-c2ccc(C)cc2)c(=O)c2c1c1ccccc1n2C)c1ccccc1C | – | inactive: -29.5%
Cc1ccc(N(CC(=O)NC2CCCC2)C(=O)CNC(=O)c2cccs2)c(C)c1 | inconclusive [inhibitor, single point] | –
CC1(C)CC(=O)C(C(O)c2ccccc2)C(C)(C)N1 (stereo unspecified) | – | inactive: -12.9%
CCn1cc(CN(C)C(=O)/C=C/c2ccc([N+](=O)[O-])cc2)c(C)n1 | inconclusive [inhibitor, partial curve, poor fit] | –
O=C(Nc1cc(C(F)(F)F)ccc1N1CCCCC1)c1cccc([N+](=O)[O-])c1 | inconclusive [inhibitor, partial curve, poor fit] | –
CCc1cc[n+](-c2nc([O-])sc2C=O)cc1 | inconclusive [inhibitor, partial curve, poor fit] | –
O=C(O)c1cc2nc(-c3ccccc3)cc(-c3ccccc3)n2n1 | inconclusive [inhibitor, full curve, poor fit] | –
O=C1CCN(S(=O)(=O)c2ccc(Br)cc2)CCN1 | – | inactive: -26.1%
CC(C)Cc1nnc(NS(=O)(=O)c2ccc([N+](=O)[O-])cc2)s1 | inconclusive [inhibitor, partial curve] | –

SMILES | Potency | activity change, negative = inhibition
Cc1ccc(/C=C2\Sc3ccccc3C2=O)s1 | inconclusive [inhibitor, full curve, poor fit] | –
c1ccc(N=Nc2ccc3cccccc2-3)cc1 | inconclusive [inhibitor, single point] | –
Nc1cc2[nH]c(=O)c3ccccc3c2cc1[N+](=O)[O-] | inconclusive [inhibitor, partial curve, poor fit] | –
CN(Cc1ccccc1)C(=O)COC(=O)c1cc(=O)[nH]c2ccccc12 | inconclusive [inhibitor, partial curve, poor fit] | –
CS(=O)(=O)N1c2cccc3cccc(c23)S1(=O)=O | inconclusive [inhibitor, partial curve, poor fit] | –
Cc1cc(OCc2cc3c(cc2Cl)OCO3)c2c(C)cc(=O)oc2c1 | – | inactive: -3.98%
CC1(C)CC2CC(C)(CN2C(=O)c2ccc([N+](=O)[O-])cc2)C1 (stereo unspecified) | inconclusive [inhibitor, partial curve, poor fit] | –
CC(=O)Nc1ccc(S(=O)(=O)N2CCCC(C(=O)N3CCN(c4ccccc4)CC3)C2)cc1 (stereo unspecified) | – | inactive: -22.1%
CCC(Oc1ccccc1F)C(=O)NCCCn1ccnc1 (stereo unspecified) | – | inactive: -4.46%
CCc1ccc(NC(=O)/C(C#N)=C/c2cc3ccc(C)cc3nc2N2CCOCC2)cc1 | – | inactive: 73.4%
Cc1[nH]c2ccc(C(=O)OCC(=O)Nc3cccc(S(N)(=O)=O)c3)cc2c1C | – | inactive: -12.7%
CNC(=O)CCSSCCC(=O)NC | inconclusive [inhibitor, partial curve, poor fit] | –
CSCC[C@H](NC(=O)OC(C)(C)C)C(=O)N1CCC(C(=O)N[C@@H](C)C(=O)NCc2ccc(F)cc2)CC1 | inconclusive [inhibitor, full curve, poor fit] | –
CCOC(=O)c1oc2cc(OCC(=O)OC)ccc2c(=O)c1-c1ccc(OC)c(OC)c1 | inconclusive [inhibitor, partial curve, poor fit] | –
CS(=O)(=O)N(CC(=O)Nc1ccccc1)c1cccc(Cl)c1Cl | – | inactive: 1.01%
CC(=O)NCc1ccc(S(=O)(=O)N2CCN(c3ccccn3)CC2)cc1 | inconclusive [inhibitor, partial curve] | –
COCCOC1CCN(Cc2cn(Cc3ccccc3)nc2-c2cc3ccccc3o2)CC1 | inconclusive [inhibitor, partial curve, poor fit] | –
COc1ccc(/C=C/C(=O)Nc2c(C(=O)O)[nH]c3ccccc23)cc1OC | inconclusive [inhibitor, partial curve, poor fit] | –
O=C(CN1CCCCC1)Nc1ccc(Br)cc1[N+](=O)[O-] | inconclusive [inhibitor, partial curve] | –
NC(=O)c1ccc(N2CCN(c3ccccc3O)CC2)c([N+](=O)[O-])c1 | inconclusive [inhibitor, partial curve, poor fit] | –
